The campaign covered roughly 150,000 compounds. About 540 (0.36%) showed an effect of 50% or more. The list shows a part of the results.

The test deals with Plasmodium falciparum. The experiment in a line: Primary screen in NF54 nanoGlo assay, in single point, at 2uM, 72h; a lower Z score goes with more inhibition. In kind it is functional, Erythrocyte. The following applies: timepoint 72 hour.
The term % Inhibition denotes the drop in the measured response relative to a control, in per cent. Consider `COc1ncc(-c2cccc(-c3ccn(CCO)n3)c2)c(OC)n1`, for which the “% Inhibition” value was -4% and the Z score was 0.64.
The matching figures for `C[C@H](NC(=O)CCc1cnn(C)c1)c1nc(C2CC2)no1`: -2% and 0.27.
With `CC(C)N1CCN(C(=O)c2cc(-c3ccco3)[nH]n2)CC1`, the “% Inhibition” value is recorded as -13% and the Z score was determined as 2.25.
For `CN(Cc1cnn(C)c1)C(=O)c1ccoc1`, the “% Inhibition” value was -5% and the Z score came to 0.85.
On to `Cc1ccc2sc(CN3CCC(C(=O)NCc4ccccc4)CC3)nc2c1`, for which the “% Inhibition” value was determined as 8% and the Z score was -0.78.
The matching figures for `CCC(C)(CC)NS(=O)(=O)c1ccc(OC2CCOCC2)c(F)c1`: -5% and 0.71.
In the case of `O=C(Nc1ccc(Nc2ccccc2)cc1)N[C@H]1CC(=O)N(c2ccc3c(c2)OCCO3)C1`, the “% Inhibition” value was determined as 31% and the Z score was -3.94.
As to `N#Cc1cccc(Cl)c1NCCN1CCCOCC1`, the “% Inhibition” value was 0% and the Z score was 0.04.
Take `COc1ccccc1Cc1nc2c(c(N3CCOCC3)n1)CN(C(=O)c1cccc3ccccc13)CC2`: the “% Inhibition” value came out at 1% and the Z score is recorded as -0.24.
The matching figures for `N#CC1C2CCC(C2)C1C(=O)c1ccccc1` (stereo not drawn): -30% and 3.57.
`O=C1NC(=O)c2ccc(N3CCCC3)c3cccc1c23`: the “% Inhibition” value is reported as -8% and the Z score amounted to 1.07.
As to `COc1ccc(CC2CCN(C(=O)NCc3ccccn3)CC2)cc1`, the “% Inhibition” value was -16% and the Z score is 1.96.
As for `C=C(C)C[C@H](NC(C)=O)C(=O)NCc1cccc(OCC)c1`, the “% Inhibition” value is 1% and the Z score was -0.22.
As for `CCOc1cc2cc(c1)C(=O)N(C)CC(=O)N[C@@H]1CN(Cc3noc(C4CC4)n3)CC[C@@H]1OCc1cccc(c1)O2`, the “% Inhibition” value is listed as -17% and the Z score is recorded as 2.12.
On to `Cc1oc(S(=O)(=O)N(C)C)cc1-c1nc(C2CC2)no1`, for which the “% Inhibition” value was -13% and the Z score worked out at 1.35.
For `O=C(Cc1ccccc1)Nc1ccc(-c2nc3cc(Cl)ccc3o2)cc1`, the “% Inhibition” value is reported as -12% and the Z score worked out at 2.32.
The corresponding values for `CCn1cnc2c(NCc3cnn4c3CCCC4)ncnc21` are -2% and 0.29.
Consider `CCC[C@H]1CN(Cc2nccn2Cc2ccccc2)C[C@@H]1NS(C)(=O)=O`, for which the “% Inhibition” value is reported as -7% and the Z score turned out to be 1.02.
The matching figures for `Cc1cccc2c(CC(=O)N3C[C@@H]4CCC[C@]4(C(N)=O)C3)c[nH]c12`: -15% and 2.53.
With `CC[C@@H](C(=O)N1CCN(c2ccnc3nncn23)CC1)N1CCCC1`, the “% Inhibition” value is given as -4% and the Z score worked out at 0.61.
`O=C(OC1CCOCC1)N1CCC[C@H](Oc2ccncc2Cl)C1`: the “% Inhibition” value was 4% and the Z score was -0.53.
As to `Cc1nc(CN2CCC[C@H](CN3CCOCC3)C2)n(C)c1C`, the “% Inhibition” value is on record as -2% and the Z score is 0.45.
The corresponding values for `COc1cc(C(=O)NCc2noc(Cc3ccccc3)n2)cc(OC)c1OC` are -2% and 0.25.
The matching figures for `COc1ccc(/C=C/c2nc(-c3cccc(-c4csc(C)n4)c3)no2)cc1`: -10% and 1.09.
Regarding `N#C[C@@H](C(=O)NCc1ccccc1)c1nc2ccccc2s1`, the “% Inhibition” value was -2% and the Z score amounted to 0.39.
For the compound `Cc1ccc(-c2onc(C)c2C(=O)Nc2nc3ccc(S(C)(=O)=O)cc3s2)cc1`, the “% Inhibition” value amounted to 1% and the Z score is given as -0.15.
For the compound `CCc1nc(-c2cc(S(=O)(=O)NC3CCCC3)c(C)s2)no1`, the “% Inhibition” value is on record as -11% and the Z score is on record as 1.09.
On to `COc1ccc(NC(=O)CC(=O)N2Cc3ccccc3C2)c(OC)c1`, for which the “% Inhibition” value was -1% and the Z score was 0.16.
In the case of `COc1cc(C(=O)NCCCN2CCCC2=O)on1`, the “% Inhibition” value was found to be 10% and the Z score was -1.58.
As to `CC(C)C(=O)N1CCC[C@H]1C(=O)NC1CCCCC1`, the “% Inhibition” value is listed as -4% and the Z score is recorded as 0.58.
In the case of `CNC(=O)c1cccnc1NCC1(O)CCCCC1`, the “% Inhibition” value is given as -14% and the Z score is on record as 1.85.
With `CCOC(CCNC(=O)N1CC2CCC1C2)C(C)C` (stereo not drawn), the “% Inhibition” value worked out at 4% and the Z score is recorded as -0.53.
As to `O=c1ccc(N2CCN(S(=O)(=O)c3ccccc3F)CC2)nn1-c1ccc(Cl)cc1`, the “% Inhibition” value is on record as 26% and the Z score is given as -3.07.
The matching figures for `Cc1cc(O)nc2ccc(NC(=O)c3cccc(F)c3)cc12`: 5% and -0.52.
For `C[C@H]1CC(=O)N(CCOc2ccc(Cl)cc2)C1=O`, the “% Inhibition” value amounted to 4% and the Z score is -0.51.
In the case of `O=C(NC[C@H](OCCO)c1cccs1)c1cccs1`, the “% Inhibition” value is reported as -22% and the Z score came out at 3.21.
For the compound `CCCNC(=O)N1CCC(F)(C(=O)N2CCOCC2)CC1`, the “% Inhibition” value is 9% and the Z score is -1.14.
With `COCc1ccc(C(=O)N2Cc3c(-c4ccncc4)nc(N)nc3[C@@H]2C)o1`, the “% Inhibition” value was 0% and the Z score is given as -0.04.
The matching figures for `CCCCNc1cc(N2CCN(C(=O)C(=O)N3CCOCC3)CC2)nc(N)n1`: -10% and 1.33.
As to `Cc1cc(NC(=O)N2CC3(CCCC3)[C@@H]2C(C)C)nn1C`, the “% Inhibition” value is reported as 32% and the Z score is -3.58.
For the compound `CC(=O)Nc1ccc(-c2n[nH]c(N)c2Cl)cc1`, the “% Inhibition” value is reported as -8% and the Z score is on record as 1.33.
As to `c1ccc(CC2CCN(Cc3cscn3)CC2)cc1`, the “% Inhibition” value came out at 4% and the Z score is given as -0.73.
As to `COc1ccc(-c2ccc(=O)n(-c3c(C)noc3C)n2)cc1S(=O)(=O)Nc1ccc(F)c(F)c1`, the “% Inhibition” value turned out to be 17% and the Z score is listed as -1.95.
Consider `CCS(=O)(=O)NC[C@H](C)N1CC(Oc2cccc(Cl)c2)C1`, for which the “% Inhibition” value worked out at 2% and the Z score is listed as -0.26.

Source of the values: ChEMBL document CHEMBL4888484, “Replenishing the malaria drug discovery pipeline: Screening and hit evaluation of the MMV Hit Generation Library 1 (HGL1) against asexual blood stage Plasmodium falciparum ,using a nano luciferase reporter read-out” (2022).
